Experimental data taken from patent US20260199504A1 (JIANGSU HENGRUI PHARMACEUTICALS, published 2026).

Molecular target: T1, Nectin-4 expressed on T47D and MDA-MB-468 human breast cancer cells (human, UniProt Q96NY8 32-510)
T1 sequence (looked up): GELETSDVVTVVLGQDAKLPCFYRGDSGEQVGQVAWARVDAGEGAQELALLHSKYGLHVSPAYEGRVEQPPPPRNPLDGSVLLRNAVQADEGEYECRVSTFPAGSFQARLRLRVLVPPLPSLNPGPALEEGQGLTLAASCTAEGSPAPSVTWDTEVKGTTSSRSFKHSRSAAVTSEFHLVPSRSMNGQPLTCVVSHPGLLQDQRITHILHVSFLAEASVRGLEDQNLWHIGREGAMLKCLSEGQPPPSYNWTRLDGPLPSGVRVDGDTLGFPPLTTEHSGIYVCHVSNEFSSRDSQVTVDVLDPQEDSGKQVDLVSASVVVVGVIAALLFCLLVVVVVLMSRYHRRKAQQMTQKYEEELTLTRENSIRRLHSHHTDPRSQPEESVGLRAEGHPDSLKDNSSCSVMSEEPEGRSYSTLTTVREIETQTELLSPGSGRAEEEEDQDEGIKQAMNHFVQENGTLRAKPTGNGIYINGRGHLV
Assay: cell-based or functional assay

B1: ADC-2 (EV201-9-A, n=3.90) (other)
heavy: EVQLVESGGGLVQPGGSLRLSCAASGFTFSSYNMNWVRQAPGKGLEWVSYISSSSSTIYYADSVKGRFTISRDNAKNSLSLQMNSLRDEDTAVYYCARAYYYGMDVWGQGTTVTVSSASTKGPSVFPLAPSSKSTSGGTAALGCLVKDYFPEPVTVSWNSGALTSGVHTFPAVLQSSGLYSLSSVVTVPSSSLGTQTYICNVNHKPSNTKVDKRV[letters of human IgG1 Fc omitted]
light: DIQMTQSPSSVSASVGDRVTITCRASQGISGWLAWYQQKPGKAPKFLIYAASTLQSGVPSRFSGSGSGTDFTLTISSLQPEDFATYYCQQANSFPPTFGGGTKVEIKRTVAAPSVFIFPPSDEQLKSGTASVVCLLNNFYPREAKVQWKVDNALQSGNSQESVTEQDSKDSTYSLSSTLTLSKADYEKHKVYACEVTHQGLSSPVTKSFNRGEC
modifications: drug-linker compound 9-A conjugated after TCEP reduction; average loading n=3.90 for the whole antibody; sites not stated
IC50 (nM), killing of MDA-MB-468 (++) cells, CTG: 152 nM
IC50 (nM), killing of T47D (+++) cells, CTG: 193 nM
